Here are results for 25 compounds from patent US7160888B2, “[1,8]naphthyridin-2-ones and related compounds for the treatment of schizophrenia” (Warner Lambert Company LLC, priority 2003, dated 2007).

In one test the target is dopamine D2 receptor (Homo sapiens, UniProt P14416). As to the kind of experiment: biochemical. Particulars: D2 Ki (nM), Table 1; 0.4 nM [3H]spiperone, CHO-hD2L membranes.
Chain of UniProt P14416 (P14416 whole entry): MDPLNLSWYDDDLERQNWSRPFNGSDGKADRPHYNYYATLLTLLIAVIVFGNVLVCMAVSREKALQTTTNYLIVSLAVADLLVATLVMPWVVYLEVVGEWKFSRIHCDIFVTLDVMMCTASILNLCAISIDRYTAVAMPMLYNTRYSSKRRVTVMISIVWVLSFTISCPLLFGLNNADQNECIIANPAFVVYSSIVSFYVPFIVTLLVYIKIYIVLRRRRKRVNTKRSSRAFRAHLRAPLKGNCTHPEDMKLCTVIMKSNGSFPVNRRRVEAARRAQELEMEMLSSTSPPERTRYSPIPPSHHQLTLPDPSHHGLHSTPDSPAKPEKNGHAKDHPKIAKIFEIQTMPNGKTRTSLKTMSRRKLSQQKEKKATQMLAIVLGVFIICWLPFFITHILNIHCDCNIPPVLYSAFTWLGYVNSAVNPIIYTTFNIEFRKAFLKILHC
Compound `O=C1CCc2ccc(OCCCCN3CCN(c4cccc(C(F)(F)F)c4)CC3)nc2N1` [Example A38, 7-{4-[4-(3-Trifluoromethyl-phenyl)-piperazin-1-yl]-butoxy}-3,4-dihydro-1H-[1,8]naphthyridin-2-one] yielded a Ki of 6 nM. This counts as single-digit nanomolar. For the compound `O=C1CCc2ccc(OCCCCN3CCN(c4ccccc4)CC3)nc2N1` [Example A39, 7-[4-(4-phenyl-piperazin-1-yl)-butoxy]-3,4-dihydro-1H-[1,8]naphthyridin-2-one], the affinity corresponds to a Ki of 7.9 nM. This Ki and that of the compound before are within 1.5-fold of each other. On the same count and under the same terms, as for `O=C1CCc2ccc(OCCCCN3CCN(c4ccc(F)cc4)CC3)nc2N1` [Example A40, 7-{4-[4-(4-Fluoro-phenyl)-piperazin-1-yl]-butoxy}-3,4-dihydro-1H-[1,8]naphthyridin-2-one], the figure is 12 nM.

As for `O=C1CCc2ccc(OCCCCN3CCN(c4ccc(F)cc4F)CC3)nc2N1` [Example A41, 7-{4-[4-(2,4-Difluoro-phenyl)-piperazin-1-yl]-butoxy}-3,4-dihydro-1H-[1,8]naphthyridin-2-one], the Ki was 9.1 nM. This Ki and that of the compound before are within 1.5-fold of each other. On the same count and under the same terms, as for `CC(F)(F)c1ccccc1N1CCN(CCCCOc2ccc3c(n2)NC(=O)CC3)CC1` [Example A42, 7-(4-{4-[2-(1,1-Difluoro-ethyl)-phenyl]-piperazin-1-yl}-butoxy)-3,4-dihydro-1H-[1,8]naphthyridin-2-one], the figure is 4.9 nM; as for `O=C1CCc2ccc(OCCCCN3CCN(c4ccccn4)CC3)nc2N1` [Example A43, 7-[4-(4-Pyridin-2-yl-piperazin-1-yl)-butoxy]-3,4-dihydro-1H-[1,8]naphthyridin-2-one], 52 nM; as for `Cc1cccc(N2CCN(CCCCOc3ccc4c(n3)NC(=O)CC4)CC2)n1` [Example A44, 7-{4-[4-(6-Methyl-pyridin-2-yl)-piperazin-1-yl]-butoxy}-3,4-dihydro-1H-[1,8]naphthyridin-2-one], 22.2 nM. `CCc1cccc(N2CCN(CCCCOc3ccc4c(n3)NC(=O)CC4)CC2)n1` [Example A45, 7-{4-[4-(6-Ethyl-pyridin-2-yl)-piperazin-1-yl]-butoxy}-3,4-dihydro-1H-[1,8]naphthyridin-2-one] came in with an inhibitory constant (Ki) of 2.8 nM.

For `Cc1ccnc(N2CCN(CCCCOc3ccc4c(n3)NC(=O)CC4)CC2)n1` [Example A47, 7-{4-[4-(4-Methyl-pyrimidin-2-yl)-piperazin-1-yl]-butoxy}-3,4-dihydro-1H-[1,8]naphthyridin-2-one], the affinity, expressed as Ki, was 75.9 nM. As for `O=C1CCc2ccc(OCCCCN3CCN(c4cc(F)cc5c4CCCC5)CC3)nc2N1` [Example A50, 7-{4-[4-(3-Fluoro-5,6,7,8-tetrahydro-naphthalen-1-yl)-piperazin-1-yl]-butoxy}-3,4-dihydro-1H-[1,8]naphthyridin-2-one], the Ki turned out to be 0.8 nM. Regarding `O=C1CCc2ccc(OCCCCN3CCN(c4cccc5c4C(=O)CCC5)CC3)nc2N1` [Example A51, 7-{4-[4-(8-Oxo-5,6,7,8-tetrahydro-naphthalen-1-yl)-piperazin-1-yl]-butoxy}-3,4-dihydro-1H-[1,8]naphthyridin-2-one], the inhibitory constant (Ki) was 0.4 nM.

`CC1(C)CCc2cccc(N3CCN(CCCCOc4ccc5c(n4)NC(=O)CC5)CC3)c2C1` [Example A53, 7-{4-[4-(7,7-Dimethyl-5,6,7,8-tetrahydro-naphthalen-1-yl)-piperazin-1-yl]-butoxy}-3,4-dihydro-1H-[1,8]naphthyridin-2-one]: the affinity, expressed as Ki, was 5.3 nM.

Still in this test, the particulars now being: D2 Ki (nM), Table 2; 0.4 nM [3H]spiperone, CHO-hD2L membranes.
As to `O=C1CCc2ccc(OCCCCN3CCN(c4cccc5cnccc45)CC3)nc2N1` [Example A37′, 7-[4-(4-Isoquinolin-5-yl-piperazin-1-yl)-butoxy]-3,4-dihydro-1H-[1,8]naphthyridin-2-one], the affinity, expressed as Ki, was 1.6 nM. Same read-out and setting: the value for `O=C1CCc2ccc(OCCCCN3CCN(c4cccc5ncc(F)cc45)CC3)nc2N1` [Example A38′, 7-{4-[4-(3-Fluoro-quinolin-5-yl)-piperazin-1-yl]-butoxy}-3,4-dihydro-1H-[1,8]naphthyridin-2-one] was 1 nM. With `O=C1CCc2ccc(OCCCCN3CCN(c4cccc5cc(F)cnc45)CC3)nc2N1` [Example A39′, 7-{4-[4-(3-Fluoro-quinolin-8-yl)-piperazin-1-yl]-butoxy}-3,4-dihydro-1H-[1,8]naphthyridin-2-one], the inhibition constant (Ki) was determined as 0.4 nM. The compound `Cc1ccc2cccc(N3CCN(CCCCOc4ccc5c(n4)NC(=O)CC5)CC3)c2n1` [Example A40′, 7-{4-[4-(2-Methyl-quinolin-8-yl)-piperazin-1-yl]-butoxy}-3,4-dihydro-1H-[1,8]naphthyridin-2-one] displayed a Ki of 1 nM. Compared with the last compound, the Ki is about 2.5-fold higher. Turning to `COc1ccc2cccc(N3CCN(CCCCOc4ccc5c(n4)NC(=O)CC5)CC3)c2n1` [Example A41′, 7-{4-[4-(2-Methoxy-quinolin-8-yl)-piperazin-1-yl]-butoxy}-3,4-dihydro-1H-[1,8]naphthyridin-2-one], the affinity corresponds to a Ki of 1 nM. For `CCOc1ccc2cccc(N3CCN(CCCCOc4ccc5c(n4)NC(=O)CC5)CC3)c2n1` [Example A42′, 7-{4-[4-(2-Ethoxy-quinolin-8-yl)-piperazin-1-yl]-butoxy}-3,4-dihydro-1H-[1,8]naphthyridin-2-one], the affinity corresponds to a Ki of 0.7 nM. `COc1ccc2c(N3CCN(CCCCOc4ccc5c(n4)NC(=O)CC5)CC3)cccc2n1` [Example A43′, 7-{4-[4-(2-Methoxy-quinolin-5-yl)-piperazin-1-yl]-butoxy}-3,4-dihydro-1H-[1,8]naphthyridin-2-one] registered a Ki of 25.2 nM. `O=C1CCc2ccc(OCCCCN3CCN(c4cccc5nccnc45)CC3)nc2N1` [Example A44′, 7-[4-(4-Quinoxalin-5-yl-piperazin-1-yl)-butoxy]-3,4-dihydro-1H-[1,8]naphthyridin-2-one] came in with a Ki of 18.6 nM. On the same count and under the same terms, as for `CN(C)c1ccc2cccc(N3CCN(CCCCOc4ccc5c(n4)NC(=O)CC5)CC3)c2n1` [Example A45′, 7-{4-[4-(2-Dimethylamino-quinolin-8-yl)-piperazin-1-yl]-butoxy}-3,4-dihydro-1H-[1,8]naphthyridin-2-one], the figure is 4.2 nM.

The compound `CNc1ccc2cccc(N3CCN(CCCCOc4ccc5c(n4)NC(=O)CC5)CC3)c2n1` [Example A46′, 7-{4-[4-(2-Methylamino-quinolin-8-yl)-piperazin-1-yl]-butoxy}-3,4-dihydro-1H-[1,8]naphthyridin-2-one] gave a Ki of 3.2 nM. As to `O=C1CCc2ccc(OCCCCN3CCN(c4cccc5ccc(=O)[nH]c45)CC3)nc2N1` [Example A47′, 7-{4-[4-(2-Oxo-1,2-dihydro-quinolin-8-yl)-piperazin-1-yl]-butoxy}-3,4-dihydro-1H-[1,8]naphthyridin-2-one], the Ki stood at 15.9 nM. `O=C1CCc2ccc(OCCCCN3CCN(c4cccc5c4NC(=O)CC5)CC3)nc2N1` [Example A48′, 7-{4-[4-(2-Oxo-1,2,3,4-tetrahydro-quinolin-8-yl)-piperazin-1-yl]-butoxy}-3,4-dihydro-1H-[1,8]naphthyridin-2-one] registered an inhibition constant (Ki) of 7.4 nM.

`CN1C(=O)CCc2cccc(N3CCN(CCCCOc4ccc5c(n4)NC(=O)CC5)CC3)c21` [Example A49′, 7-{4-[4-(1-Methyl-2-oxo-1,2,3,4-tetrahydro-quinolin-8-yl)-piperazin-1-yl]-butoxy}-3,4-dihydro-1H-[1,8]naphthyridin-2-one] yielded a Ki of 7.5 nM.

What is called Ki is the dissociation constant of the complex between target and ligand, obtained from inhibition or displacement.
